# Source: the RNAGym collection of RNA variant scans (doi:10.1093/nar/gkz1192)
# The source gives no read counts; variants with many changes may rest on few reads.
# B1: CPEB3 Ribozyme (parent)
# chain: UAACAGGGGGCCACAGCAGAAGCGUUCACGUCGCAGCCCCUGUCAGAUUCUGGUGAAUCUGCGAAUUCUGCUGUAUAUCUC
# Variants of: B1
# Experiment: self-cleavage, relative activity (ratio to wild type); higher = more cleavage; in vitro, sequencing
# Procedure, shortened: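 Libraries of CPEB3 self-cleaving ribozyme mutants came from rounds of error-prone PCR and carried barcodes, which DNA sequencing matched to variants. In vitro transcription used T7 RNA polymerase at 37°C for 5 hours, with a further 15 min in DNase I before EDTA stopped the reaction; the ribozymes cleaved during both steps. The RNA was reverse transcribed with template switching and sequenced on Illumina. Relative activity is the cleaved/total read fraction of a variant divided by that of the unmutated ribozyme, averaged over three batches with at least 5 reads.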
row,Variant,self-cleavage
1,G24A U31C C39U U41C G63A U69A,0.06
2,G24A A28G U41G U49A U54C U78C,0.07
3,C23U U25C A45U,0.19
4,G24A U41C U49C,0.18
5,C23U U31A U69A,0.37
6,U25A G63A A65G U69A,0.08
7,U25A U31A U60C A75U,0.2
8,U25A U54A A56G,0.54
9,U25A A35G U48C U80C,0.24
10,U25A U41C A45U U51A U80C,0.1
11,C23U A45U U74A A77U,0.33
12,G24A A28G A64G U72C,0.33
13,C23U A47G U76A,0.11
14,G24A A45C U72C,0.32
15,C23U U69C A75G,0.08
16,U25A U31C G42A U51A A56G C68G U78C,0.04
17,C23U U49A U58C A64G A75G,0.04
18,U25A U26C U58A U80C,0.32
19,U25A U26C U43C U78A U80A,0.07
20,C23U U43A A77U,0.47
21,C23U U48C U49C U58A U76C,0.07
22,C23U U26C A35G,0.27
23,G24U U26C A35G,0.25
24,U25A A28G A75G,0.49

row,Variant,self-cleavage
1,U25A U43A A45G C79A,0.31
2,G24A C32G U48A G53A,0.06
3,U25A U43C U67G U78C,0.1
4,U25A U49C U66A,0.13
5,C23U C50A U51A,0.21
6,U25A U48A A56G U60C,0.45
7,U25A U43C U58C U66C,0.08
8,C23U C37A A65G U80C,0.14
9,U25A A28G A47G U69C,0.15
10,G24A G55A U67C,0.11
11,U25A U48C G63A U66C U72C,0.14
12,G24A U26A U43C,0.06
13,U25A C38A A56U,0.24
14,C23U A28U A65G,0.13
15,G24A U48C U78C,0.11
16,U25A U49C U67C U72A,0.12
17,C23U A35U A57G U66C C81U,0.08
18,U25A A28G A47G,0.42
19,G24A A45U U67G,0.18
20,U25A A35U U66C,0.16
21,G24C U49C U78C,0.16
22,U25A U43C G53C U58C,0.07
23,U25A U31C A56U A64G,0.17
24,C23U U43C U58C,0.09

row,Variant,self-cleavage
1,U25A U43C C59U,0.21
2,C23U C32U A35G U41C,0.05
3,U25A A45G A57G U67A,0.05
4,G24U U31C A64U U69C,0.05
5,G24U U41C U58C A65G,0.12
6,C23U U43C U60C U66C,0.15
7,G24A U51C U72C,0.17
8,C23U U26C A45C U69A,0.09
9,G24A A28G G36U U60A,0.08
10,G24C U49A A56G,0.24
11,U25A U31C U43G,0.4
12,U25A U54C A56C U67C,0.08
13,G24A U26C A75G,0.08
14,U25A A28G U41G U78C,0.2
15,G24U C29U C37U U54A,0.15
16,G24U U25C A45U A65U,0.14
17,U25A U43C C62A U67C A75G,0.08
18,G24A A64G U72C,0.11
19,G24A U51C U58C U72G,0.14
20,U25A A28G A45G U58A,0.04
21,U25A U26C A28G U69A,0.1
22,G24U U25A A45U A57G,0.08
23,G24U U51C U69A U80C,0.07
24,U25A U43C U69C,0.11

row,Variant,self-cleavage
1,G24U A45G A75G,0.39
2,G24A A28G U41A U49C G73C,0.06
3,C23U U49C U54A,0.16
4,U25A U43C A47G A57U G63U,0.17
5,U25A G42A U78A U80C,0.29
6,G24A U41A U43C U54A A65C C68A,0.16
7,C23U U25A U58A,0.11
8,U25A C39G U74G,0.29
9,G24U U31C A65G,0.4
10,C23U U25C C37U U60C,0.32
11,C23U U51A U80C,0.36
12,G24C G42U U66C U74C U78A,0.07
13,C23U A35G U67C U76C,0.11
14,G24A A35G U60C U66C U74C C81G,0.1
15,U25A U43A U67A,0.07
16,G24A U49C A64G G73A,0.07
17,C23U U48C A57G U67A,0.07
18,G24A U25C C38U A57G,0.06
19,U25A U31C A56G A64G C71A,0.32
20,C23U A57G C62U,0.1
21,C23U U49C U66C A75U,0.08
22,C23U U60C U66A,0.1
23,G24A U31A C50G,0.13
24,C23U C44U A57G G70A,0.06

row,Variant,self-cleavage
1,G24A A45U A64G A75G U78C,0.08
2,C23U U41C U72C,0.37
3,C23U U25C U48C,0.32
4,C23U U54A A65C,0.19
5,U25A C79U U80G,0.16
6,G24C A45U U72G,0.1
7,U25A U41C A64U,0.21
8,G24A U25C C27U U31C A56G U60C U74C,0.06
9,U25A C29G C38U A45G,0.09
10,G24U C29A U31A U43C A57G A64G U78C,0.04
11,G24A A45U U49C,0.22
12,U25A U26A U31C U49C U66C,0.09
13,U25A A28G A45U A64U A77G U80C,0.11
14,C23U C38U U54A A56G,0.11
15,G24A U26A A65C,0.19
16,C23U U26A U41A U67A,0.1
17,C23U U26C G46A,0.15
18,C23U U26C U60C,0.14
19,G24A U31C C37G U43A A77G U80C,0.15
20,U25A C32U A56G U60A U72C,0.13
21,U25A A45G A56G U78C,0.05
22,C23U U43C C68A A77U,0.05
23,U25A A64U U67C U72C U74C U78C,0
24,U25A G46A A47C,0.06

row,Variant,self-cleavage
1,U25A U26A U43G U72A A75U,0.2
2,U25A G36C U54G,0.29
3,U25A U41C A57G,0.15
4,U25A A45U A77G,0.22
5,U25A C50A U66C,0.14
6,U25A A28U G61C,0.16
7,G24A U25C U49C,0.09
8,G24U A35G G70A,0.37
9,G24C U43A A56G U67A U80C,0.07
10,G24U U25A U80C,0.39
11,U25A A35G G42C A45U U54C,0.21
12,C23U U26C G36C A47G U48C U72C,0.06
13,G24A A28G A45G U69A,0.12
14,G24A A28C A45U C59U,0.07
15,U25A A28U C39U A45C U48G U51A G55U,0.1
16,U25A A35G C62U,0.08
17,C23U A64U U69A,0.07
18,U25A C40U U48A U67C,0.11
19,C23U U58C A75G,0.08
20,G24A U58G U60C,0.07
21,G24A U31C A64U,0.14
22,C23U U58C A64G,0.36
23,G24A A28G U43C U54G,0.21
24,G24C U25A A56G U69A U74C A75G,0.16

row,Variant,self-cleavage
1,G24A A28G U51A A65G,0.36
2,U25A U43A U48C,0.37
3,G24A G42A A64U U72C,0.08
4,C23U U25C A77G,0.16
5,G24C U31C U41A A65G U80C,0.22
6,C23U U41A U74C A75U A77G,0.29
7,U25A U31C U43G A56G A57G A64G,0.36
8,U25A U49C A57G U67C,0.34
9,C23U U49A A65G,0.25
10,U25A G36U U41A G70U,0.13
11,C23U U31C C40A A56U U66C U72A,0.08
12,C23U U43A U76C,0.49
13,G24C U31C U41A U48C C59A,0.06
14,U25A G30A U67C A75U,0.11
15,U25A G30A U41C U43C G52A,0.16
16,U25A U31C G46A,0.19
17,U25A U48C U51C U76A,0.07
18,G24A A47G A65C U72A,0.07
19,U25A A28G U51A A57G U60C A65G,0.16
20,U25A U26A A65G U78A,0.15
21,U25A U41C A56G,0.25
22,G24A U25A G42U,0.37
23,U25A C29G U80C,0.6
